From paper PMC6076302
No constants are given. Whether binding was seen depends on the method and setting. For part of these data: Binding seen in cells or lysates may run through a third protein. Some binding calls cover weakened binding; strength is not graded here. For part of these data: Where a sequence is shown, tags or fusion partners need not be part of it. Each block holds one binder with its values, some of them ahead of it.

Columns and labels:
biotinylated-Pam3CSK4 = molecular target: T1, biotinylated-Pam3CSK4; assay: pull-down; biotinylated Pam3CSK4 on streptavidin magnetic beads, mixed with purified HA-tagged protein at 4 °C overnight, washed with PBST, anti-HA blot; both purified
T1 sequence (peptide, biotin; Pam3 lipid group (as in the name Pam3CSK4)): CSKKKK

[1] = molecular target: caspy2 (endogenous, ZF4 zebrafish fibroblasts) (zebrafish (endogenous in ZF4)) (UniProt Q504J1); assay: condition: only cells infected with EIB202 instead of 0909I E. piscicida; native gel or EMSA; ZF4 cells infected with wild-type EIB202 E. piscicida; digitonin-solubilised lysates on 4-12% blue native PAGE with 0.5% Triton X-100, anti-caspy2 blot
[2] = molecular target: caspy2 (endogenous, ZF4 zebrafish fibroblasts) (zebrafish (endogenous in ZF4)) (UniProt Q504J1); assay: condition: only cells infected with EIB202 instead of 0909I E. piscicida; cross-linking; ZF4 cells infected with wild-type EIB202 E. piscicida (MOI 50, 2 h); Triton X-100-insoluble pellets cross-linked with DSS (4 mM, 30 min, room temperature), SDS-PAGE, anti-caspy2 blot
[3] = molecular target: caspy2 (endogenous, ZF4 zebrafish fibroblasts) (zebrafish (endogenous in ZF4)) (UniProt Q504J1); assay: cross-linking; ZF4 cells infected with 0909I E. piscicida (MOI 50, 2 h, with/without 10 mM glycine); Triton X-100-insoluble pellets cross-linked with DSS (4 mM, 30 min, room temperature), SDS-PAGE, anti-caspy2 blot
[4] = molecular target: caspy2 (endogenous, ZF4 zebrafish fibroblasts) (zebrafish (endogenous in ZF4)) (UniProt Q504J1); assay: native gel or EMSA; ZF4 cells infected with 0909I E. piscicida; digitonin-solubilised lysates on 4-12% blue native PAGE with 0.5% Triton X-100, anti-caspy2 blot

binding (biotinylated-Pam3CSK4): no binding
B1: HA-tagged caspy (enzyme, UniProt Q9I9L7 1-383)
chain: MAKSIKDHLQDALSNIGADNLRRFQSRLGDRKQEPRVRKSTIEKLKDEIDLVDLLVNTFTSDAVSVTVDILRGIKCNAVAEELLENTGQGGVSQPEPPVPEPIPKDPAQLKELKVTPCSQQFKNKILREKGQETYEIKDKSVRKRLALLINNVDFDDKAMKRSGSEKDEENMEKLLKELDYQVVKRPNLSAKEMDEAIRDFAQREEHKYSDSAFVVIMSHGKRDAIMGVHYHRTNNPSDSFPVDNVYRRLNSENCPALRDKPKVILIQACRGGEHGRVWASDGEPDEPIEIEDDDFVHKEKDFISLMSCTPDTKSYRHVQNGTFYVQTLVDVFIKCAHEDHIEELFRKVLRRFEHPNMIGNFKQMACKDRATLPKLFYLFPGL

binding [1]: no binding
binding [2]: no binding
binding [3]: binds
binding [4]: binds
B2: caspy2 (endogenous, ZF4 zebrafish fibroblasts) (enzyme, UniProt Q504J1 1-404)
chain: MEDITQLLSDVLEDLVESELKQFTRQLWIGVKPGVEPIPRGKLENKDRQDVVDSMVQQYSEDAGTITVQTLRKIKQNERAKRLESNLLKVQSQGQENKQNSEEPQPIPQIISQPIQQIISQPINNAGSEDLQPIQADWQRPRQIIPCSQETKNTLLKAHGDDIYTPRSGTQRKGLALLITNIQFANTQHNRNGADRDEENAEWLLRSLGFAVIKYRNLSGKDIRRAVENFSKRREHEDADSTFIVIMSHGTRIDNKDAIVGVSDDVYFIEETFSHLNSVNCPALIDKPKVILIQACRGGQSSGVLAQDSVFASDSWVHMEKDFVCFMSTMPNTFAYRNPIEGSFFISYIVDVFCSSAHRDDIMELFRKVTLRMEKDQRFQGQAKLLPCIERTSISKRFYLFPGL

binding (biotinylated-Pam3CSK4): no binding
B3: HA-tagged caspy2 (enzyme, UniProt Q504J1 1-404)
chain: B2 chain
